Publication PMC4336329 (PLoS ONE, 2015)
Hit rate of the full screen: of about 310,000 compounds, about 2,200 (0.71%) showed an effect of 50% or more. The effect is printed as a negative number. The list shows a part of the results.

Each compound was assayed against human ether-à-go-go-related gene (hERG) potassium channel (human, UniProt Q12809) (assay: primary screen, population patch clamp on CHO cells stably expressing hERG).
Sequence of human ether-à-go-go-related gene (hERG) potassium channel (Q12809 whole entry, looked up): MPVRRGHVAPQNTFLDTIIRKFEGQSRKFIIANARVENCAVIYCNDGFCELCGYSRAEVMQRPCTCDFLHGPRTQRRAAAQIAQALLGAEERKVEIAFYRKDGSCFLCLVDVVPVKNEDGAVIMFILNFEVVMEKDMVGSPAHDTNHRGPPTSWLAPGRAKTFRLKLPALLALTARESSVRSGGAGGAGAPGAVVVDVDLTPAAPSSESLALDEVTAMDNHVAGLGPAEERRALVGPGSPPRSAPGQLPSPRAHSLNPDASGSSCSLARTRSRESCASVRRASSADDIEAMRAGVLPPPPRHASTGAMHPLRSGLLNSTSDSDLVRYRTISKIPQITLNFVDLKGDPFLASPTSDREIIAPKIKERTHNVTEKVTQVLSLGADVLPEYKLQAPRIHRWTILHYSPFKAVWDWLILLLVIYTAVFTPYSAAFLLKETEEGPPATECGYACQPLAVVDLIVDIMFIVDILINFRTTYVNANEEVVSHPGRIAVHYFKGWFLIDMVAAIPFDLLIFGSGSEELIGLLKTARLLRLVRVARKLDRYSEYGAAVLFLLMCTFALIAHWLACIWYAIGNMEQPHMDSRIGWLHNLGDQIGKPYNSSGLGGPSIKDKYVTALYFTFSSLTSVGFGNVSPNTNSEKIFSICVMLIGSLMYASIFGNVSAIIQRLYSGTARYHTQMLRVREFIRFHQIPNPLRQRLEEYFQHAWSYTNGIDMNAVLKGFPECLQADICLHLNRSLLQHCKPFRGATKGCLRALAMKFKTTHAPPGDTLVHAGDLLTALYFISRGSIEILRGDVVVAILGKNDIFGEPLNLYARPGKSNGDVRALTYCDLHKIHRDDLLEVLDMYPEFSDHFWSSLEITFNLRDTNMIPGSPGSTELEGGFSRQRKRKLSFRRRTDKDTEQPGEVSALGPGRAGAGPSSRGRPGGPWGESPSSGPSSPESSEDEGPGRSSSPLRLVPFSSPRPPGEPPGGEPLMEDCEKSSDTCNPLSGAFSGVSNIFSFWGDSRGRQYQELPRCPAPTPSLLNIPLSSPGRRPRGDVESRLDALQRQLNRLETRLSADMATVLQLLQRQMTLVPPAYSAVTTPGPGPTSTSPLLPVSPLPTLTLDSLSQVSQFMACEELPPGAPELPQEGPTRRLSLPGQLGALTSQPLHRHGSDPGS

| SMILES | hERG current change (%, negative = inhibition) at 1uM [%] |
| --- | --- |
| O=C(CSc1ccc2ccccc2n1)N1CCC(c2noc3ccc(F)cc23)CC1 | 9.76 |
| CCNc1nc(NCC)n2c(SCC(=O)O)nnc2n1 | 14.4 |
| COc1ccc(-c2cc(C(F)(F)F)n3nc(C(=O)N4CCCCC4)cc3n2)cc1 | 4.13 |
| COC(=O)c1ccc(NC(=S)NC2CCCCC2)cc1 | 0.326 |
| CCOC(=O)C1CCN(C(=O)CCc2nnc3ccc(NCCCN4CCCC4=O)nn23)CC1 | 15.7 |
| Cc1ccc(-n2c(-c3ccncc3)nnc2-c2ccco2)cc1 | 8.2 |
| c1ccc(C2=NNC(=NC3CC3)SC2)cc1 | -0.969 |
| O=C(CSC1=NCCS1)NC1CCCCC1 | 13.9 |
| COc1cc(/C=N/NC(=S)NCCc2ccccc2)cc(OC)c1OC | 13.7 |
| CCOC(=O)C(Cc1ccccc1)C(=O)Nc1ccccc1C (centres unmarked) | 7.9 |
| Cc1ccc(N2C(=O)c3ccccc3NC2c2ccccc2O)cc1 (centres unmarked) | 14.9 |
| Cc1csc(SCC(=O)Nc2ccccc2C)n1 | 11.4 |
| O=C(O)c1cccc(-n2cccc2/C=C2/NC(=O)N(Cc3ccccc3F)C2=O)c1 | 13.7 |
| COc1ccc(C(C)NC(=O)c2ccccc2)cc1 (centres unmarked) | 4.09 |
| CCCCN1C2CCCC1CC(NC(=O)c1cccc(OC)c1)C2 (centres unmarked) | -2.96 |
| CCn1c(C)cc(/C=C2\C(=O)NC(=O)N(c3ccccc3C)C2=O)c1C | 6.54 |
| COc1cc(NC(=S)NCCc2ccccc2)c(OC)cc1NC(=O)C(C)C | 1.49 |
| O=C(NC1CCCC1)C1CCCN(S(=O)(=O)c2ccc(-n3cnnn3)cc2)C1 (centres unmarked) | 3.92 |
| Cn1c(=O)c2c(nc(N3CCN(Cc4ccccc4)CC3)n2CC(=O)c2ccccc2)n(C)c1=O | 0.691 |
| COc1cccc(C2=N/C(=C\N(C)C)C(=O)O2)c1 | 9.83 |
| CC(C)CN(CCCNC(=O)CN1C(=O)COc2ccc(S(=O)(=O)N3CCOCC3)cc21)CC(C)C | 20.2 |
| Cc1cccc(NC(=O)CSc2nnnn2-c2cccnc2)c1 | 1.51 |
| CCN1CCN(C(c2ccc(C(F)(F)F)cc2)c2ccc3cccnc3c2O)CC1 (centres unmarked) | -1.02 |

| SMILES | hERG current change (%, negative = inhibition) at 1uM [%] |
| --- | --- |
| O=C(Nc1ccc(F)cc1)c1ccccc1 | 4.8 |
| Cc1c(-n2c(O)c(C3=c4ccccc4=NC3=O)sc2=O)c(=O)n(-c2ccccc2)n1C | 1.17 |
| Cc1ccc(CN(C(=O)COc2ccc(C)c(C)c2)C2CCS(=O)(=O)C2)o1 (centres unmarked) | 0.459 |
| CCNc1nc(NCC)nc(N(CC)C(N)=S)n1 | 6.9 |
| Cc1ccc(S(=O)(=O)NCC(=O)OCC(=O)Nc2cccc(S(=O)(=O)NC3=NCCCCC3)c2)cc1 | 11.9 |
| COCCNC(=O)c1ccc(C2SCC(=O)N2Cc2ccco2)cc1 (centres unmarked) | 10.2 |
| Cc1oc(-c2ccc(Cl)cc2)cc1C(=O)NC1CCN(Cc2ccccc2)CC1 | 9.73 |
| Cc1cc(C(=O)Nc2cccc3ccccc23)c(C)o1 | 8.64 |
| CNC(=S)N/N=C1\CC(c2ccccc2)Oc2ccccc21 (centres unmarked) | 17.9 |
| O=C(CSc1cn(CCNC(=O)c2cccs2)c2ccccc12)NCC1CCCO1 (centres unmarked) | -1.71 |
| CC(=O)OC(C(=O)NC1CCCCC1)c1cccc(F)c1 (centres unmarked) | 10.4 |
| Cc1nc2ccccc2n1-c1ccccc1 | 4.78 |
| CC1(CCC#N)N=C(SCCC#N)N(c2ccccc2)C1=O (centres unmarked) | 6.38 |
| C=CCn1c(SCC(=O)Nc2cccnc2Cl)nnc1-c1ccccc1F | 10.6 |
| CCCn1c(C(C)Nc2nc(-c3ccc(OC)cc3)cs2)nc2ccccc21 (centres unmarked) | 14 |
| CCc1ccc(OCC(=O)Nc2ncn[nH]2)cc1 | 8.98 |
| CN1CCN(c2ccccc2NC(=O)c2cccc(OCc3ccccc3)c2)CC1 | -41.6 |
| C/C(=N\O)C(=O)NCc1ccccn1 | 6.07 |
| COc1ccc(OC)c(-c2nc(CN3CCN(C(=O)c4ccco4)CC3)c(C)o2)c1 | 8.33 |
| CC(NS(=O)(=O)c1ccc(Cl)cc1)C(=O)N1CCOCC1 (centres unmarked) | -0.146 |
| O=C(NC1CCN(S(=O)(=O)c2ccccc2)CC1)c1ccccc1 | 13.1 |
| CCOC(=O)NNc1cc(C(F)(F)F)ccn1 | 9.92 |
| O=C(NCc1ccccc1)C(=O)NCC1CCCN1S(=O)(=O)c1cccs1 (centres unmarked) | 7.6 |

| SMILES | hERG current change (%, negative = inhibition) at 1uM [%] |
| --- | --- |
| COCC(=O)Nc1ccc(S(=O)(=O)Nc2cc(C)nc(C)n2)cc1 | 5.11 |
| COc1ccc(CCNC(=O)c2cc(-c3ccccc3)on2)cc1OC | 10.7 |
| COc1cccc2cc(C(=O)N3CCc4ccccc43)c(=O)oc12 | 12.9 |
| C/C(=N\NC(=O)Cc1cccn1C)c1ccc([N+](=O)[O-])cc1 | 5.66 |
| O=C(NCCCN1CCOCC1)c1cccc(S(=O)(=O)Nc2ccccc2Cl)c1 | 2.65 |
| O=C(CN1C(=O)S/C(=C\c2cccs2)C1=O)Nc1ccc(O)cc1C(=O)O | 8.16 |
| O=C(Nc1ccccc1)c1cnc(-c2ccccc2)nc1-c1ccccc1 | 2.1 |
| COC(=O)c1ccc(COc2ccccc2[N+](=O)[O-])o1 | 9.73 |
| O=C(COc1ccc(Br)cc1)N1CCCCCC1 | -7.76 |
| C=CCn1c(N2CCCC2)nc2c1c(=O)[nH]c(=O)n2C | 11.1 |
| CC1=C(C(=O)Nc2ccc(F)cc2)C(c2ccc(C)o2)C2=C(CC(C)(C)CC2=O)N1 (centres unmarked) | 2.12 |
| NS(=O)(=O)c1ccc(NN=C2CCN(Cc3ccccc3)CC2)c([N+](=O)[O-])c1 | 6.82 |
| COc1ccc(C(=O)OCC(=O)Nc2sccc2C(N)=O)cc1[N+](=O)[O-] | 4.86 |
| O=C(Nc1ccc2c(c1)OCCO2)c1ccc2ccccc2n1 | -0.879 |
| COc1ccccc1N1CCN(CC(=O)Nc2ccccc2C(=O)NC(C)c2ccccc2)CC1 (centres unmarked) | 9.04 |
| Cc1ccc(C(=O)NCCSc2ccccc2)cc1S(=O)(=O)Nc1ccccc1 | -5.15 |
| Cc1ccc(N(CC(=O)NCC2CCCO2)C(=O)CNS(=O)(=O)c2ccc(Cl)cc2)cc1 (centres unmarked) | 6.77 |
| CCOC(=O)c1nc2nc(C)c(Cl)c(=O)n2[nH]1 | 9.83 |
| CCOCCCN=Cc1c(O)n(Cc2ccccc2)c(=O)[nH]c1=O | 2.78 |
| CCOCCOc1cccc(C(=O)NC(C)c2ccc3ccccc3c2)c1 (centres unmarked) | 13.2 |
| CN1CCN(C(=O)CN(C)S(=O)(=O)c2cc(Cl)ccc2Cl)CC1 | 13.9 |
| CC(=O)NC(c1cc(Cl)c2ccccc2c1O)C(C)C (centres unmarked) | 7.21 |
| Cc1ccccc1-n1ccnc1SCC(=O)NC1CCCC1 | 9.39 |

| SMILES | hERG current change (%, negative = inhibition) at 1uM [%] |
| --- | --- |
| C=CCN1CN(S(=O)(=O)c2cccs2)c2nc3ccccc3nc21 | 7.98 |
| O=C(CCCOc1ccccc1)N1CCN(S(=O)(=O)c2ccccc2)CC1 | 8.22 |
| O=C(CSC(=S)N1CCCC1)NCC(=O)Nc1ccc(F)c(F)c1 | 6.02 |
| CC1CN(c2nc3ccccc3nc2C(C#N)C(=O)NC2CCCCC2)CC(C)O1 (centres unmarked) | 12.6 |
| CC(C)(CN1CCN(Cc2ccccc2)CC1)NS(=O)(=O)c1ccccc1 | -13.7 |
| O=C(CNC(=O)C1COc2ccccc2O1)N/N=C\c1ccccc1Cl (centres unmarked) | 8.04 |
| S=C(Nc1ccc(Cl)c(Cl)c1)NN1CCOCC1 | 7.79 |
| Cc1ccc(C)c(S(=O)(=O)Nc2ccc(C(=O)NCCc3ccccn3)cc2)c1 | 7.74 |
| Cc1cc(C)c2c(c1)/C(=N/NC(=O)c1ccc(O)cc1)CCC2 | 7.8 |
| COC(=O)CNC(=S)NC(=O)c1ccc(C(C)(C)C)cc1 | 10.6 |
| Cc1ccc(Cl)cc1NC(=O)CN1CCN(S(=O)(=O)N2CCOCC2)CC1 | -31.6 |
| N#CCSc1nc(-c2ccccc2)cs1 | 8.02 |
| CCc1ccc(-c2ccc(C(=O)C(F)(F)F)[nH]2)cc1 | 5.63 |
| CCCCc1nc2sc3c(=O)n(N)cnc3c2c2c1CCCC2 | 20.8 |
| COc1ccc(C2=C(C)CC(C)(C)NC2=O)cc1OC | 12.7 |
| O=C1c2nccnc2C(=O)N1c1ccc(F)cc1 | 7.28 |
| Cc1cc(C)c(C#N)c(SCc2cc3c(cc2Cl)OCO3)n1 | 9.29 |
| CCOC(=O)c1[nH]c2ccccc2c1NC(=O)c1cc(OC)c(OC)c(OC)c1 | 4.56 |
| COc1ccc(NC(=O)c2cc(-c3cc(C)ccc3O)n[nH]2)cc1Cl | 3.07 |
| COc1ccc(CCN2C(=NC(=O)C(C)C)SC3CS(=O)(=O)CC32)cc1OC (centres unmarked) | 10.6 |
| CCOc1cc2[nH]c(=O)n(CCc3ccc(OC)c(OC)c3)c(=O)c2cc1OCC | 17.6 |
| O=c1cc(N=Nc2ccc(Cl)cc2)[nH]c(=O)[nH]1 | 6.32 |
| Cc1cnn2c(C3CC3)ccnc12 | 8.17 |
